# From article PMC4336329 (PLoS ONE, 2015)
# Screen size: about 310,000 compounds; about 2,200 (0.71%) showed an effect of 50% or more. Effects have a minus sign here. The list shows a part of the results.
# Target: human ether-à-go-go-related gene (hERG) potassium channel (human, UniProt Q12809)
# Test: primary screen, population patch clamp on CHO cells stably expressing hERG
# Chain of human ether-à-go-go-related gene (hERG) potassium channel (Q12809 whole entry, looked up): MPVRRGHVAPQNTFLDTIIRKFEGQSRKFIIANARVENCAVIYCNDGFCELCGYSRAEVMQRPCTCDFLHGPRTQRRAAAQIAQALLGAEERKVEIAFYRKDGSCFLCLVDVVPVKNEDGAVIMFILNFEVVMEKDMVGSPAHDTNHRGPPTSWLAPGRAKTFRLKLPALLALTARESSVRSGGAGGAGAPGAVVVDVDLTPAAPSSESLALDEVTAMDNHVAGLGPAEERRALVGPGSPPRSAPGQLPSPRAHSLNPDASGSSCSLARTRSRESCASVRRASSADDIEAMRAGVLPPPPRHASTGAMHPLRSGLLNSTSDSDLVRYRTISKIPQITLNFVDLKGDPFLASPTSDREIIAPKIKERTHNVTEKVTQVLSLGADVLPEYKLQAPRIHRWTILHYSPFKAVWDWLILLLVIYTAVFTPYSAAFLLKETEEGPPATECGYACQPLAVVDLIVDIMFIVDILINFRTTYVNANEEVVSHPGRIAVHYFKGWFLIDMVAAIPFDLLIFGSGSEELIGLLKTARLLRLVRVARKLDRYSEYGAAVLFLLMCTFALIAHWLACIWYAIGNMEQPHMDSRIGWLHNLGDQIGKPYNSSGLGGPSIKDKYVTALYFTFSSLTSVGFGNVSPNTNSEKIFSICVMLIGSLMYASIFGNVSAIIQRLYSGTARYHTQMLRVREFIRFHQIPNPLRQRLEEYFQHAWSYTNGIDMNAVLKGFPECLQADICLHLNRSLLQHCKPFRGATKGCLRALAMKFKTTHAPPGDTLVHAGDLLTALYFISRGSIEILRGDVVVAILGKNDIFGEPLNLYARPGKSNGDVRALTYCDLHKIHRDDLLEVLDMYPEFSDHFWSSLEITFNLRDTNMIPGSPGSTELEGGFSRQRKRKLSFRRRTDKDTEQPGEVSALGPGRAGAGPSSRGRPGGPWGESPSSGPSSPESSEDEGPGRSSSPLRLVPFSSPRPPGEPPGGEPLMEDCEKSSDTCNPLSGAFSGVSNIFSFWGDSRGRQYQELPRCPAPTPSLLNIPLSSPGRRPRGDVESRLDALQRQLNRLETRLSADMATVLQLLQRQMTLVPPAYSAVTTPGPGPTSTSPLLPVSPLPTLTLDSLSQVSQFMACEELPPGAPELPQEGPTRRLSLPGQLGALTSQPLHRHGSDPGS
row,SMILES,"hERG current change (%, negative = inhibition) at 1uM [%]"
1,CC1CCN(c2ccc([N+](=O)[O-])cc2C(=O)O)CC1,12.6
2,Cc1ccc(C(=O)Nc2cc(=O)n(C)c(=O)n2C)cc1C,8.19
3,CCCOc1c(Cl)cc(/C=N/O)cc1OCC,5.27
4,Cl.O=C(OCCN1CCCCC1)c1ccc(Cl)cc1,-24.6
5,CC1(C)Cc2ccccc2-c2nnc(-c3cccnc3)n21,9.81
6,Nc1c(Cl)ncnc1N/N=C/c1cccc(O)c1,9.05
7,COc1ccc(S(=O)(=O)N2CCCOC2CNC(=O)C(=O)NCc2cccnc2)cc1 (centres unmarked),8.74
8,COc1cccc2c1C(=O)C=C(C)C2=O,5.1
9,CC(=O)Nc1c(C#N)c(C(C)(C)C)cn1C,8.28
10,O=C(N[C@@H](Cc1ccccc1)C(=O)O)c1ccc(C(F)(F)F)cc1,5.8
11,CCCC(NS(=O)(=O)c1ccc(C)cc1)C(=O)O (centres unmarked),7.83
12,COCC(=O)N=Nc1c(O)[nH]c2ccccc12,11.7
13,O=C(Oc1cccc(Oc2ccccc2)c1)N1CCOCC1,-5.48
14,CC(C)(C)c1ccc(S(=O)(=O)N2CCCC2C(=O)N2CCOCC2)cc1 (centres unmarked),9.87
15,CC(O/N=C/c1ccccc1OC(F)F)C(=O)Nc1cccc(S(=O)(=O)N2CCOCC2)c1 (centres unmarked),-14.9
16,CCOc1ccccc1CN1CCCC(CNC(=O)Cc2ccc(OC)cc2)C1 (centres unmarked),5.39
17,Cc1ccc(C(=O)CC(C(=O)O)n2cnc([N+](=O)[O-])n2)cc1 (centres unmarked),8.26
18,CC(C)CCCN1C(Nc2ccccc2)=NC[C@@H]1CC(C)C,-24.9
19,C=CCn1c(C)nc2ccccc2c1=O,13.2
20,CCC(C)c1ccccc1NS(=O)(=O)c1cnn(CC)c1 (centres unmarked),8.63
21,COC(=O)/C(C#N)=C(/Nc1ccc(F)c(Cl)c1)C(F)(F)F,9.93
22,O=C(Nc1cc(Cl)ccc1-n1cncn1)c1cc(S(=O)(=O)N2CCOCC2)ccc1F,0.298
23,O=C(CN1CCc2ccccc2C1)N1CCN(S(=O)(=O)c2ccccc2)CC1,3.41

row,SMILES,"hERG current change (%, negative = inhibition) at 1uM [%]"
1,Fc1ccc2c(-c3cccc(C(F)(F)F)c3)c(-c3ccccc3)ncc2c1,14.9
2,O=C(Cc1cccc2ccccc12)OCn1nnc2ccccc2c1=O,11.2
3,CC(=O)c1ccc(N2CCN(C(=O)CCS(=O)(=O)c3ccc4c(c3)NC(=O)CS4)CC2)cc1,14.7
4,O=C(CSc1nnnn1-c1ccc(O)cc1)N1N=C(c2ccc3ccccc3c2)CC1c1ccccc1 (centres unmarked),6.93
5,CC(=O)c1sc(NC(=O)c2ccc(F)c(F)c2)nc1C,8.87
6,CC(=O)c1ccc(NC(=O)C(C)Sc2nnc(C3CC3)n2C2CC2)cc1 (centres unmarked),-3.04
7,O=C(Oc1ccc2ccc(OC(=O)N3CCCCCC3)cc2c1)N1CCCCCC1,-6.36
8,Oc1ccc(CCc2n[nH]c(=S)n2-c2ccc(F)cc2)cc1,7.8
9,Cc1cc(Cl)c(S(=O)(=O)NC2CCCCC2)cc1OCC(=O)Nc1nncs1,-1.08
10,Cc1ccc(CNC(=O)/C=C/c2ccc(S(=O)(=O)NCc3ccco3)cc2)cc1,1.46
11,CC(C)(C)C(=O)Nc1cccc(C(=O)Nc2cc(C(=O)O)cc(C(=O)O)c2)c1,8.54
12,CC(Sc1nc2ccccc2s1)C(=O)Nc1ccc2c(c1)OCO2 (centres unmarked),8.7
13,c1csc(-c2csc(-c3cccs3)n2)c1,10.4
14,CC(=O)Nc1ccc2nc(SCC(=O)Nc3ccc(N4CCOCC4)c(Cl)c3)sc2c1,11.7
15,O=C(c1ncn(Cc2ccccc2)c1C(=O)N1CCc2ccccc2C1)N1CCc2ccccc2C1,4.23
16,Cc1c(C(=O)Nc2ccccc2[N+](=O)[O-])csc1-c1ccccc1,-12.3
17,COc1ccc(CN2CCN(Cc3ccc4cc(F)ccc4n3)CC2CCO)c(C)c1C (centres unmarked),0.204
18,CC(=O)NC12CC3CC(C1)CC(C(=O)N1CCN(S(=O)(=O)c4ccc(C(C)C)cc4)CC1)(C3)C2,16.2
19,CCn1c(Oc2ccc(F)cc2)nc2c1c(=O)n(C)c(=O)n2C,1.34
20,Cn1c(=O)[nH]c(=O)c2c1ncn2CCCc1ccccc1,4.95
21,CN(C)S(=O)(=O)c1ccc(C(=O)NCC(=O)N/N=C/c2ccccc2)cc1,20.7
22,COc1ccc(NC(=O)Cn2nnc3ccccc32)c([N+](=O)[O-])c1,16.8
23,C=CCNC(=O)c1cccc(NS(=O)(=O)c2ccc(Cl)cc2)c1,3.36

row,SMILES,"hERG current change (%, negative = inhibition) at 1uM [%]"
1,Cn1cc(/C=N\O)nc2c(=O)n(-c3ccccc3)c(=O)nc1-2,14
2,CC(C)(C)NCc1cc(Cl)ccc1OCc1cccs1.Cl,6.43
3,CCN1C(=O)[C@@H]2[C@@H](c3ccc(-c4cccc(Cl)c4)cc3)N3CCC[C@@]3(C(=O)OC)[C@@H]2C1=O.O=C(O)C(F)(F)F,8.24
4,Cc1cc(Cl)ccc1OCC(=O)Nc1cccnc1,-4.54
5,CCC(=O)Nc1ccc(NC(=O)Cc2ccccc2)cn1,8.16
6,CC(C)(C)NC(=O)CN(Cc1cccs1)C(=O)c1csnn1,4.34
7,CCCCC(=O)Nc1cnc(NC(=O)c2ccco2)cc1C,0.528
8,CCOC(=O)c1c(NC(=O)CS(=O)(=O)c2cn(CC)c3ccccc23)sc2c1CCCCC2,14.6
9,O=C(NCc1ccc(F)cc1)C1CC(=O)N(CCc2ccccc2)C1 (centres unmarked),5.84
10,CN(CC(=O)Nc1ccccc1C(F)(F)F)C(=O)c1cc([N+](=O)[O-])ccc1N1CCOCC1,10.3
11,O=C(CCNS(=O)(=O)c1cccs1)N1CCN(c2cccc(C(F)(F)F)c2)CC1,-2.16
12,CN(C(=O)Nc1ccc(Cl)cc1)n1cnc2ccccc2c1=O,14.3
13,CCCCN(CCCNC(=O)C1CCCN(S(=O)(=O)CCC)C1)Cc1ccccc1 (centres unmarked),-5.54
14,Cc1nc2ccc(NC(=O)c3ccc(S(=O)(=O)N(C)C)cc3)cc2s1,7.85
15,Cc1c(Cl)cccc1NC(=S)N1CCOCC1,3.18
16,CCCCn1c(SCC(=O)Nc2nnc(C)s2)nnc1-c1ccoc1C,2.33
17,COc1cc(/C=N/Nc2ccccn2)ccc1O,5.55
18,O=C(Cc1ccc(Cl)cc1)Nc1cc(Cl)ccn1,4.05
19,Cc1noc(/C=C/N(C)C)c1S(=O)(=O)N1CCC(C(=O)Nc2ccc(Cl)cc2)CC1,17.7
20,Cc1ccc(CN2CC34C=CC(O3)C(C(=O)NCc3ccco3)C4C2=O)cc1 (centres unmarked),6.26
21,Cc1ccccc1NC(=O)c1c(C)[nH]c(=S)c(C#N)c1-c1ccco1,5.58
22,CCc1ccc(C(=O)OCC(=O)NC2CCCC2)cc1,10.6
23,CCc1ccc2nc(N(CCCN(C)C)C(=O)c3ccc4c(c3)OCCO4)sc2c1.Cl,2.17

row,SMILES,"hERG current change (%, negative = inhibition) at 1uM [%]"
1,O=C(CCN1CCN(Cc2ccccc2)CC1)NNC(=O)Cc1ccc(Cl)c(Cl)c1,-26.4
2,O=S(=O)(NCc1ccccc1Br)c1cccs1,7.6
3,CCOc1ccc2c(c1)C(C)=CC(C)(C)N2C(=O)Nc1ccccc1F,12.5
4,c1ccc(-n2cc(CN3CCCC(CN4CCCC4)C3)c(-c3ccc4c(c3)OCO4)n2)cc1 (centres unmarked),7.56
5,COc1ccccc1NC(=O)/C(C#N)=C/c1ccc(OCCN2CCOCC2)c(OC)c1,13.2
6,Cc1cc(Cl)c(S(=O)(=O)NCc2ccccc2)cc1OCC(N)=O,2.68
7,Nc1nc(-c2cccnc2)nc2sc3c(c12)CCCC3,5.47
8,CSc1nc(-c2ccco2)nn1C(=O)CCc1ccccc1,20.2
9,COc1ccc(CN2CCN(c3ncnc4scc(-c5ccc(F)cc5)c34)CC2)cc1,-1.77
10,COc1ccc(/C=C2\C(=O)c3ccccc3OC2c2ccccc2)cc1 (centres unmarked),17.6
11,COc1cc2c3c(c1)C1(C(=O)N3C(C)(C)C=C2C)C(C#N)=C(N)Oc2cc(O)ccc21 (centres unmarked),-9.14
12,COCCN(CC1CCCN(C2Cc3ccccc3C2)C1)C(=O)CCC(F)(F)F (centres unmarked),-6.73
13,CCN(CC)C(=O)C1CC(=O)N(c2ccc(OC)cc2)C1c1ccc(OC)cc1 (centres unmarked),16
14,CCOc1ccc(NC(=O)Nc2ccc(Br)cn2)cc1,7.95
15,Cc1ccccc1C(=O)N1CC(=O)Nc2ccc(F)cc2C1c1ccc(F)cc1 (centres unmarked),6.19
16,O=C(Cn1cnc2c(cnn2-c2ccccc2)c1=O)NC1CCCC1,-10.7
17,CCN(C(=O)COc1cc(OC)ccc1C(C)=O)C1CCS(=O)(=O)C1 (centres unmarked),14.9
18,CCC(C(=O)Nc1nc(C)c(C)s1)c1ccccc1 (centres unmarked),17.8
19,COc1ccc(Nc2ncnc3c2c(C)c(C)n3CCCN(C)C)cc1,4.94
20,CCOC(=O)/C(C(=O)Nc1ccccc1Cl)=C1/NC(C)(C)Cc2ccccc21,6.22
